# Experimental data published in the supplement of paper PMC10338343.
# ± gives the standard deviation. The full ranking holds about 3,700 sequences; the median of “pre-steady-state target cleavage rate” is about 0.02, and the highest 2% start at about 0.23. This is a selection; strong and weak results do not stand in their true shares.
# Tested on: MILI (PIWIL2) piRISC loaded with Kctd7 piRNA (26 nt)
# Assay: pre-steady-state target cleavage rate (min^-1); MIWI and MILI are mouse PIWI proteins and EfPiwi is from a freshwater sponge; tags in brackets are library labels; higher = faster piRNA-guided slicing of the target
# Conditions: guide: Kctd7 piRNA 5'p-UGUUAAUCUCUCAGAGAAGGUGACAG; auxiliary factor: 500 nM mouse GTSF1
# How it was run: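 Cleave-'n-Seq reactions paired 0.1 nM transcribed, DNA-blocked target RNA library with 1 nM active affinity-purified piRISC holding one synthetic guide, plus or minus 500 nM GTSF1 partner protein, in HEPES–potassium acetate buffer at 33 °C for 0–8 or 0–960 min. After sequencing of uncleaved targets and normalisation to depth and weakly complementary targets, the pre-steady-state cleavage rate was taken from a burst-and-steady-state fit. Three trials were pooled, and k3 was capped at 0.0001 min^-1.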
row,Sequence,pre-steady-state target cleavage rate
1,UAGUGAGUCACCUUCACAGAGAGAUUAACA,0.0664 ± 0.0081
2,UAGUGAGUCACCUCUCUGAGAGAUUAACA,0.142 ± 0.015
3,UAGUGAGUCACCUUCUCUGAGAGAUCAACA,0.0788 ± 0.025
4,UAGUGUGUCACCUACUCUGAGAGUUUAACA,0.129 ± 0.032
5,UAGUCUGUCACCUACUCUGACAGAUUAACA,0.00422 ± 0.0035
6,UAGUGACACACCUUCACUGUGAGAUUAACA,0.0574 ± 0.0084
7,UAGUGUGUCACCUUCUGAGAGAGAUUAUGA,0.0125 ± 0.0063
8,UAGUCUGUCACCUUCUGUGAGAGAUUAACA,0.0887 ± 0.01
9,UAGUGACAGACCUUCCCUGAGAGAUUAACA,0.0627 ± 0.018
10,UAGUGAGUCACCUUCUGUGAGAGUUUAACA,0.0738 ± 0.017
11,UAGUGACACUGGUUCUCUGAGAGAUUAAGA,0.0538 ± 0.012
12,UAGUGACUCACCUUCUCUGAGAGAUUAACA [g2:g23:cont:t1A],0.173 ± 0.011
13,UAGUCUGUCACCUUCACUCAGAGAUUAACA,0.0272 ± 0.0086
14,UAGUGUGUCACCUUGUCUGAGUGAUUAACA,0.00503 ± 0.0039
15,UAGUGAGUCACCUACUCUCAGAGAUUAACA,0.0282 ± 0.008
16,UAGUGUGUCACCAUCUCUGAGAGUUUAACA,0.172 ± 0.047
17,UAGUGAGUCACCUUGUCUGAGAGAUUAACA,0.0975 ± 0.011
18,UAGUGACAGUGGAAGACAGAGAGAUAAACA,< 0.0001
19,UAGUGACAGACCAUGUCUGAGAGAUUAACA,0.0379 ± 0.0095
20,UAGUGAGUCAGCUUGUCUGAGAGAUUAACA,0.149 ± 0.01
21,UAGUGACACACCUUCUCUGAGAGAUUAACCA,0.144 ± 0.01
22,UAGUGAGUGAGCUUCUCUGAGAGAUUAACA,0.0803 ± 0.011
23,UAGUGAGUCACCUUCUCUGAGAGAUUAUCA,0.197 ± 0.037
24,UAGUGUGUCACCUUCUCUGAGAGAUUAGACA,0.0316 ± 0.0099

row,Sequence,pre-steady-state target cleavage rate
1,UAGUGACUCACCUUCGCUGAGAGAUUAACA,0.066 ± 0.013
2,UAGUGACACACCCUCUCUGAGAGAUUAACA,0.16 ± 0.013
3,UAGUGACAGACCUUCUCUGAGAGAUUAGCA,0.0252 ± 0.013
4,UAGUGUGUCACGUACUCUGAGAGAUUAACA,0.0968 ± 0.0082
5,UAGUGACUCACCUUCUGAGAGAGAUUAAGA,0.0126 ± 0.0045
6,UAGUGUGUGUCCUUCUCUGAGAGAUUAACA,0.0982 ± 0.015
7,UAGUGACACACCAUCUCUGUGAGAUUAACA,0.0449 ± 0.0061
8,UAGUGAGUCACCUUCAGUGAGAGAUUAUGA,0.0138 ± 0.0063
9,UAGUGACAGUGCUUCUCUGAGAGAUAUAACA,0.0429 ± 0.0084
10,UAGUGACAGUGGUUCUCUGUGAGAUUAACA,0.0049 ± 0.0014
11,UAGUGACAGUGGAAGAGAGAGAGAUUACACA,< 0.0001
12,UAGUGACAGACCUUCUCUGCAGAGAUUAACA,< 0.0001
13,UAGUGUGUCGACCUUCUCUGAGAGAUUAACA,0.0942 ± 0.0089
14,UAGUGAGUCACCUUCACUGUGAGAUUAACA,0.048 ± 0.0052
15,UAGUGAGUCACCUUCUCUGAGAGUUUUACA,0.257 ± 0.078
16,UAGUGACAGUGGAAGAGUGAGACAUUAACA,< 0.0001
17,UAGUGACAGUGCUUCUCUGAGAGAUUGACA,0.0242 ± 0.0055
18,UAGUGACACACCUUCUCUGAGACAUUUUGA,< 0.0001
19,UAGUGACAGAGGAUCUCUGAGAGAUUAUGA,< 0.0001
20,UAGUGAGUCACGUUCUCUGAGAGAAUAACA,0.0637 ± 0.021
21,UAGUGACAGUGCUUCUCUGAGAGAUUAUACA,0.00876 ± 0.0033
22,UAGUGAGUCACGUUCUCUGAGAGAUUAAGA,0.084 ± 0.018
23,UAGUGACUCACCGUCUCUGAGAGAUUAACA,0.132 ± 0.011
24,UAGUGACAGACCUUCUCAGAGAGUUUAACA,0.0085 ± 0.006

row,Sequence,pre-steady-state target cleavage rate
1,UAGUGUGUCACCUUGUCUGAGAGAUUAUCA,0.056 ± 0.019
2,UAGUGACUCACCUUCUCAGAGAGAUAAACA,0.0433 ± 0.011
3,UAGUGACAGUGCGUUCUCUGAGAGAUUAACA,0.0351 ± 0.0071
4,UAGUGACAGUCCUUCUCAGAGAGAUAAACA,0.0045 ± 0.0034
5,UAGUCUCAGACCUUCUCUGAGAGAUUAACA,0.114 ± 0.013
6,UAGUGUGACACCUUGUCUGAGAGAUUAACA,0.0749 ± 0.011
7,UAGUGAGUCACCUUCUCUGAGUAGAUUAACA,0.013 ± 0.0068
8,UAGUCUGUCACCUUCUCUGAGAGAUUAAGA,0.125 ± 0.027
9,UAGUGACAGACCAACUCUGAGAGAUUUUGA,< 0.0001
10,UAGUGUGUCACCUUCUAUGAGAGAUUAACA,0.0956 ± 0.016
11,UAGUGACACACCUUCUCUGAGAGACUAACA,0.154 ± 0.024
12,UAGUGUGUCACGAACUCUGAGAGAUUAAGA,0.0138 ± 0.0036
13,UAGUGUCUCACCUUCUCUGAGAGAUUAUCA,0.173 ± 0.033
14,UAGUCUGUCACCUACUCUGAGUGAUUAACA,0.00273 ± 0.0026
15,UAGUGAGUGACCUUCUCUCAGAGAUUAACA,0.0396 ± 0.0089
16,UAGUGAGUCAGCUUCUCUGAGUGAUUAACA,0.00382 ± 0.0032
17,UAGUGUGUCACCCUUCUCUGAGAGAUUAACA,0.104 ± 0.016
18,UAGUGACUCACCAUCUCUGAGAGAUUAUGA,0.00533 ± 0.0031
19,UAGUCUGUCACCUUCUCAGAGAGAUUUACA,0.179 ± 0.038
20,UAGUGAGUCACCUUCUGUGAGAGAUAAACA,0.028 ± 0.0077
21,UAGUGAGUCACCUUCUCUGCGAGAUUAACA,0.0952 ± 0.015
22,UAGUGACAGUCCUUCUCUAAGAGAUUAACA,0.0523 ± 0.012
23,UAGUGACAGUGGAAGACAGACAGAUUAACA,< 0.0001
24,UAGUGACAGUGGAAGUCUGAGAGAUUCAACA,< 0.0001
